± gives the standard deviation of the averaged measurements. The list shows a part of the results.

For the assay, the system named is PfAP2-I AP2 domain 3 (GST-tagged). Briefly: gcPBM binding intensity (ln(normalized median fluorescence intensity)); higher = stronger DNA binding. In outline: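 GST-tagged P. falciparum DNA-binding domains produced in E. coli were incubated for 1 h on an Agilent 4 × 180k array of primer-extended double-stranded 36-bp intergenic genomic probes with negative controls. Binding intensity is the highest Masliner-normalised natural-log median intensity across replicate spots of either probe orientation, with bound protein detected by Alexa488 anti-GST antibody at 488 nm.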
Regarding “TGTTGATAAAAAATAAAAAATAAAAAAATAAAATAT [TGCATGCA_negctrl_site559]”, the “gcPBM binding intensity (ln)” value is 7.67 ± 0.74.
As to “CTACATATTAATATATGTACATATTAATATATCTAA [XGTACX_site7118]”, the “gcPBM binding intensity (ln)” value came to 7.65 ± 0.33.
“ATATATACATATAAATGTACATAATTATTATGCACA [XGTACX_site1261]”: the “gcPBM binding intensity (ln)” value came out at 11.3 ± 0.82.
With “ATAAAAAGAAAAAAGGGTACACTATACTATTTAAAA [XGTACX_site4467]” the figure was 7.85 ± 0.45; with “TATAAAGCATATTAAAGTACTTATTTTCCTTTTTCT [XGTACX_site8892]”, 7.54 ± 0.61.
With “TTTTATTTTATTCTTAAATAAGTATTATAAAATATG [XGTACX_negctrl_site201]”, the “gcPBM binding intensity (ln)” value is 7.49 ± 0.39.
With “TATATATATATGTGCACACATAATAAAAAAAAAAAT [CACACA_site3831]” the figure was 10.3 ± 0.11; with “TTAATGTTGTATGGTTGTACAATAAGCCCCTTTTAA [XGTACX_site2484]”, 8.02 ± 0.4; with “TTATTTGAACAATATGCACACATTTTATTTATTTTA [CACACA_site3420]”, 8.94 ± 0.2.
Take “AACTTACTTGGACATACACACATATAGATTTATATA [CACACA_site7412]”: the “gcPBM binding intensity (ln)” value turned out to be 8.04 ± 0.5.
With “GTACAAATGTTGTGTATATATACACACATACATATA [XGTACX_negctrl_site276]” the figure was 8.02 ± 0.58; with “ATGTAGTTTTATCAGTGTACAAGTATTTTATCACAT [XGTACX_site8958]”, 7.93 ± 0.58.
With “AAAATATATATATATATATATATATGTATACTCCTA [XGTACX_negctrl_site312]”, the “gcPBM binding intensity (ln)” value was determined as 8.22 ± 0.12.
With “TTATTTATAAATATTAATTTTTTTTTTTTTTTTTTT [XGTACX_negctrl_site105]” the figure was 8.73 ± 0.12; with “TTTTATGTTTCAAAATGTACATTAAAATATACCATA [XGTACX_site1713]”, 7.74 ± 0.5; with “ATATATATATTTTTTAAACACACACCGAAATATTTG [CACACA_site8937]”, 8.95 ± 0.57.
As to “TTAATTAAAACGAATACACACATAAATATATAAAAG [CACACA_site1254]”, the “gcPBM binding intensity (ln)” value turned out to be 7.77 ± 0.61.
“TTTTATTATTGAATACTAGTATATATAATATGAAGA [CACACA_negctrl_site910]”: the “gcPBM binding intensity (ln)” value came out at 7.8 ± 0.35.
For “CATATGCATACTATACGTACATATGTATATAATATA [XGTACX_site7738]”, the “gcPBM binding intensity (ln)” value came to 8.03 ± 0.42.
With “AATATAATATAATGCACACATAAAAAAAAAATCAAA [CACACA_site122]” the figure was 11.2 ± 1.
With “TTTTTATATAACCTTCTTAATTCTTTTTTTTTTTTT [XGTACX_negctrl_site591]” the figure was 7.43 ± 0.61; with “AAAACAAAATTATGAACATGCAAGGTAAAATTGTAA [TGCATGCA_site775]”, 8.49 ± 0.74; with “CACAAACAAAAACACACACACACACCGACAAAAATG [CACACA_site5362]”, 7.99 ± 0.33.
With “TTCTTTCTAGAATATTGTACATATATTGTTATTATA [XGTACX_site8425]” the figure was 7.63 ± 0.38; with “AGAAAGAAGATATATACACACAAAAAAAGATATATA [CACACA_site6779]”, 7.71 ± 0.6.
In the case of “TATAAATATTTATACACACACACATTAATACCTATA [CACACA_site7604]”, the “gcPBM binding intensity (ln)” value is 8.02 ± 0.47.
“AAAAGAAGATAATACAGTACAGAATAATATAAAATA [XGTACX_site5962]”: the “gcPBM binding intensity (ln)” value came to 7.75 ± 0.73.
On to “TTTTGTTAAAAAGATGTATATTTTATAAATATTTAT [CACACA_negctrl_site101]”, for which the “gcPBM binding intensity (ln)” value was determined as 7.51 ± 0.51.
With “AAATAAAATAAATAATATAAAATAATATATAAAAAA [CACACA_negctrl_site1777]” the figure was 7.37 ± 0.47; with “AAAAAAAAATTGTGTACACATAATTATATCATATGT [CACACA_site4500]”, 7.96 ± 0.26.
With “ATGGATAATAAGTTTACACACAAAAAAAAAGAAAAA [CACACA_site861]” the figure was 7.67 ± 0.47; with “ATAAGAATCATATTTAAACACACATACATATATATA [CACACA_site9106]”, 8.19 ± 0.79; with “AAAAAAAAAAAATACACACACATAAAAAAAAAAATA [CACACA_site1858]”, 7.71 ± 0.22.
In the case of “ATTATATTAACAATGACATGCAATTCTTAATCCTTA [TGCATGCA_site648]”, the “gcPBM binding intensity (ln)” value turned out to be 7.74 ± 0.34.
Take “ATTAAATAAACCATTACACACTTTTATGTTTTGAAA [CACACA_site1143]”: the “gcPBM binding intensity (ln)” value is 7.83 ± 0.52.
With “TTTTTATTGGTGAATACACACGTATATATATATTAT [CACACA_site8756]” the figure was 8.03 ± 0.69; with “TAGTTACCTTAATATTGTACTTTTCTTTCATATATG [XGTACX_site1309]”, 7.75 ± 0.53.
With “CACTAAATAAGGAAAGTGCATAAAATAAAGGTTATA [GTGCAC_site9793]” the figure was 10.4 ± 0.26; with “GTGTCAAATTTTATAACACACAAAAGGTTATATAAG [CACACA_site7839]”, 7.79 ± 0.47.
“ATAGTTTCTGGTAGCTGTACGAGTCGTAGAGTGCAG [XGTACX_site2022]”: the “gcPBM binding intensity (ln)” value amounted to 8.29 ± 0.36.
With “ATTTAAAAAATATATTGTACATATTTTATTATGTTT [XGTACX_site2984]” the figure was 7.58 ± 0.28; with “TACAGTTTTTCTTTGAATTTATCAAGTTTTTTTCCC [XGTACX_negctrl_site60]”, 7.49 ± 0.68.
With “CATACATATAAACACACACACACACCCACCCACAAA [CACACA_site8059]” the figure was 8.56 ± 0.71.
With TAGTTAGCCCAAGGGGTGCTAATTACTATCTAAATA the figure was 9.82 ± 0.35.
